# The list shows a part of the results. Sequences were assembled here from the parent chain. Values near 0.05 are background.
# B1: TEV protease; numbered along this chain (parent)
# chain: MGESLFKGPRDYNPISSSICHLTNESDGHTTSLYGIGFGPFIITNKHLFRRNNGTLVVQSLHGVFKVKDTTTLQQHLVDGRDMIIIRMPKDFPPFPQKLKFREPQREERICLVTTNFQTKSMSSMVSDTSCTFPSGDGIFWKHWIQTKDGQCGSPLVSTRDGFIVGIHSASNFTNTNNYFTSVPKNFMELLTNQEAQQWVSGWRLNADSVLWGGHKVFMVKPEEPFQPVKEATQL
# Variants of: B1
# Assay: raw area under fraction-flipped curve 0-4 h after induction (AUC4h, not background-subtracted), DNA-recorder readout of cleavage of the substrate (dimensionless); higher = more cleavage of the substrate by the protease variant
# Conditions: temperature: 34 °C; time window: 0-4 h after rhamnose induction
# Protocol: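 In vivo DNA recorder in E. coli TOP10(DE3) ΔrhaA at 34 °C. Each TEVp single-site mutant (parent TEVp 0) is paired with a single-site variant of the 7-mer TEVs (canonical ENLYFQ|S). The substrate sits between flexible linkers in a Bxb1-sfGFP-TEVs-SsrA fusion, so cleavage stabilises Bxb1 and speeds flipping of a recombination array, read by NGS. The value is the raw area under the fraction-flipped curve over 0-4 h after rhamnose induction (AUC4h), with ≥20 reads per time point. It is not background-subtracted; inactive controls average about 0.047.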
# 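Also: Bxb1 expression induced with 0.2% (w/v) L-rhamnose at OD600 near 0.5, cultures sampled hourly, flipped fraction per protease–substrate barcode pair counted by paired-end Illumina sequencing.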
Variant,area with substrate ENLYFAS,area with substrate ENLYFES,area with substrate ENLYFFS,area with substrate ENLYFIS,area with substrate ENLYFLS,area with substrate ENLYFMS,area with substrate ENLYFSS,area with substrate ENLYFCS,area with substrate ENLYFDS,area with substrate ENLYFHS,area with substrate ENLYFPS,area with substrate ENLYFTS,area with substrate ENLYFVS,area with substrate ENLYFYS,area with substrate ENLYFNS,area with substrate ENLYFRS,area with substrate ENLYFGS,area with substrate ENLYFKS,area with substrate ENLYFWS
V58I,0.0593,0.078,0.0691,0.0337,0.053,0.0615,0.0726,–,–,–,–,–,–,–,–,–,–,–,–
N53K,0.0562,0.0635,0.0591,0.0599,–,0.0509,0.0524,0.0634,0.0397,0.0438,0.0562,0.0607,0.0559,0.056,–,–,–,–,–
N53P,0.0372,–,–,0.0449,–,0.0636,0.0484,–,–,–,0.0641,0.0511,–,0.0482,0.0582,0.06,–,–,–
N53H,0.0457,0.0554,0.0635,0.0525,0.065,–,0.0491,0.0646,–,0.0586,0.0555,0.0611,0.059,0.0468,–,–,0.0785,0.0575,0.0581
K68S,0.0556,0.0743,–,0.0598,–,0.0661,0.0501,0.0568,0.057,–,0.0543,0.0654,0.0452,–,0.0427,–,–,–,–
H76Y,0.0572,–,0.0525,0.0434,–,0.0594,0.0541,0.0466,–,0.0703,0.073,0.0419,0.0483,–,–,–,0.0578,0.0839,–
T30M,0.0498,0.0639,0.063,0.0613,–,0.0462,0.0583,–,–,0.0598,–,–,0.0653,–,0.0514,–,–,0.0615,–
T30H,0.0462,0.0594,0.0731,0.0586,0.0588,0.0688,0.0499,0.0578,0.0588,0.0572,0.0586,0.0582,0.0623,0.0625,0.0528,0.0583,0.0519,0.0753,0.0494
F41Y,0.0513,0.0667,0.0719,0.0559,0.0781,0.0665,0.0508,0.0635,0.0412,0.0455,0.0633,0.0605,0.0608,0.0655,0.0665,0.064,0.0506,0.0648,0.0652
R50T,0.0606,–,–,0.0555,0.0619,0.0766,0.062,–,0.056,–,–,0.0593,0.0534,0.0658,0.0603,–,–,–,–
G2W,0.0573,–,–,–,–,0.0783,–,0.0521,0.0528,–,0.0601,–,–,–,0.0415,0.0519,–,–,–
T31M,0.07,0.0562,–,0.0572,0.0616,0.0544,–,0.057,–,0.0645,0.0645,0.0736,–,0.0561,0.0739,0.0499,0.0633,–,0.0482
T31Y,0.0568,0.0676,0.0719,0.0657,0.0176,0.0841,–,–,0.0526,0.0618,0.0533,–,–,–,0.0651,0.0602,0.057,0.0538,–
L56N,0.035,0.0474,0.0342,0.0358,0.0492,0.0372,0.0325,0.0275,–,0.048,0.0515,0.0229,–,–,0.0492,0.0491,0.0386,–,0.0483
I19D,0.0438,0.0391,0.0341,0.0388,0.0471,0.0421,0.0384,0.047,0.0441,0.0514,0.0497,0.0492,0.0371,0.0254,0.0492,0.0354,–,0.0603,–
P9D,0.0589,0.0592,0.0562,0.0601,–,–,–,0.0498,0.053,–,0.0689,–,–,–,0.0646,–,0.08,–,–
P9E,0.0629,–,0.0683,0.0574,–,0.064,0.083,0.07,0.0578,0.0701,0.0493,–,0.0585,–,–,–,0.0534,–,–
P9S,0.0601,–,0.0858,0.0612,–,0.0653,–,0.0743,–,–,0.0664,0.06,0.054,0.0627,–,–,–,–,–
D27F,0.0538,0.0541,0.0756,0.0351,–,0.0779,–,0.066,0.0707,–,–,0.0725,–,–,0.0681,–,–,–,0.0503
D27H,0.0433,0.0558,0.0446,0.0565,–,0.0704,0.0574,0.0504,–,0.0594,0.0645,–,0.0781,–,0.0621,0.0562,–,–,0.0565
H62G,0.0494,0.0652,0.0621,0.0637,0.0896,0.0636,–,0.0531,–,–,0.0511,0.0628,–,0.0442,0.0645,–,–,0.0497,0.0519
H62T,0.0646,–,0.0676,0.0599,0.0296,0.0622,0.0625,0.0661,0.0619,–,0.071,0.0682,0.0536,–,–,0.0638,–,0.0633,–
V78H,0.0487,–,0.0735,0.0653,–,–,–,–,–,–,0.0554,0.0462,–,0.0499,0.0566,0.0549,–,–,–
I15R,0.0657,–,0.0659,0.0562,–,0.0451,–,–,–,0.0469,0.036,0.0517,–,–,0.0516,–,0.0474,0.0575,0.045
Q59E,0.0677,0.0691,0.078,0.0554,–,0.059,0.0507,0.0759,0.0552,–,0.0892,0.0581,0.0311,–,0.0456,–,0.0453,0.0592,0.0552
Q59S,0.0673,–,0.0582,–,0.06,0.0683,0.0387,0.0646,–,0.0734,0.068,0.0639,0.0593,–,–,–,–,0.0618,0.0531
D79Y,0.0711,–,–,0.07,–,0.0621,0.0618,–,0.0535,0.0558,0.075,–,–,–,0.0618,0.0559,–,0.0505,–
H47T,0.0597,0.0615,0.0662,0.0696,0.0394,–,–,0.0697,–,0.0658,–,0.0556,0.0512,0.0715,0.0611,0.0515,0.0817,0.0551,–
